Source: article PMC11832924
Results are given in words; binding and its absence hold for the method and conditions named. For part of these data: Binding seen in cells or lysates may run through a third protein. Some results given as binding are weak or reduced against the parent protein; the word gives no strength. For part of these data: Sequences can lack the tags named with a protein. Blank lines part the entries; values can stand above or below the molecule they belong to.

Sequences of proteins named here, by UniProt entry; tags and fusion partners are left off.
UniProt P61081: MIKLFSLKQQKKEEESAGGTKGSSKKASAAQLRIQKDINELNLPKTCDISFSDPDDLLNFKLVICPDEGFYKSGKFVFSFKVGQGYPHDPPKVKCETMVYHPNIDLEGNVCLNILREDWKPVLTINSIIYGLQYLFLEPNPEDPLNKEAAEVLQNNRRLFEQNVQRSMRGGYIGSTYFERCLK

Experiments:
His-SUMO-SAG = His-SUMO-SAG (UniProt Q9UBF6); assay: pull-down; purified GST-tagged and His-SUMO-tagged proteins mixed in binding buffer (50 mM Tris-HCl pH 7.5, 1% Triton X-100, 150 mM NaCl, 1 mM DTT, 0.5 mM EDTA); pulled down with Ni-NTA agarose or GST beads for 4 h; no CUL-5 present; both purified
[1] = biological target: SAG (endogenous) (human (endogenous in liver cancer cell lines)) (UniProt Q9UBF6); assay: co-IP; endogenous proteins of liver cancer cells, unstressed; IP with anti-SAG Ab or anti-RHEB Ab, normal IgG as control; co-IP lysis buffer (50 mM Tris-HCl, 0.5% NP-40, 120 mM NaCl, 1 mM EDTA, pH 8.0)
FLAG-UBE2F = biological target: T1, FLAG-UBE2F (UniProt Q969M7); assay: co-IP; PLC/PRF/5 and SK-HEP-1 cells transfected with FLAG-tagged plasmids for 48 h; IP with FLAG beads, immunoblot for endogenous RHEB
T1 sequence: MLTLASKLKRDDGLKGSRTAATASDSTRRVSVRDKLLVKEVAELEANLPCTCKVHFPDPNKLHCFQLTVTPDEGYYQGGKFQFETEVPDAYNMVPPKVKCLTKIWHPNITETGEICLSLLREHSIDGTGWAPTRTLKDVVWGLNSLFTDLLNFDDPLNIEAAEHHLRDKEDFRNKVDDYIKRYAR

FLAG-UBE2M = FLAG-UBE2M (UniProt P61081); assay: as above
FLAG-SAG = FLAG-SAG (UniProt Q9UBF6); assay: as above
[2] = biological target: RHEB (endogenous) (human (endogenous in PLC/PRF/5 and SK-HEP-1)) (UniProt Q15382); assay: co-IP; endogenous proteins of liver cancer cells, unstressed; IP with anti-SAG Ab or anti-RHEB Ab, normal IgG as control; co-IP lysis buffer (50 mM Tris-HCl, 0.5% NP-40, 120 mM NaCl, 1 mM EDTA, pH 8.0)

binding (His-SUMO-SAG): binds
Molecule: GST-RHEB (from UniProt Q15382 1-184)

binding [1]: binds
binding (FLAG-UBE2F): no binding
binding (FLAG-UBE2M): no binding
binding (FLAG-SAG): binds
Molecule: RHEB (endogenous) (from UniProt Q15382 1-184)

binding [2]: no binding
B1: UBE2F (endogenous) (enzyme, UniProt Q969M7 1-185)
chain: MLTLASKLKRDDGLKGSRTAATASDSTRRVSVRDKLLVKEVAELEANLPCTCKVHFPDPNKLHCFQLTVTPDEGYYQGGKFQFETEVPDAYNMVPPKVKCLTKIWHPNITETGEICLSLLREHSIDGTGWAPTRTLKDVVWGLNSLFTDLLNFDDPLNIEAAEHHLRDKEDFRNKVDDYIKRYAR
